Laboratory results taken from the supplement of paper PMC3334620.
Over roughly 33,000 sequences, “E-score (-0.5 to 0.5)” has its median near -0.011; the highest 2% begin near 0.28. The list shows a part of the results.

The sequences below were run against T1, Gcr1 (UniProt P07261) (assay: PBM E-score (8-mer binding enrichment) (E-score (-0.5 to 0.5)); higher = stronger / more preferred TF binding; most listed sequences are background and not binding sites). Details: protein concentration: 100 nM; construct: GST-full length.
T1 sequence: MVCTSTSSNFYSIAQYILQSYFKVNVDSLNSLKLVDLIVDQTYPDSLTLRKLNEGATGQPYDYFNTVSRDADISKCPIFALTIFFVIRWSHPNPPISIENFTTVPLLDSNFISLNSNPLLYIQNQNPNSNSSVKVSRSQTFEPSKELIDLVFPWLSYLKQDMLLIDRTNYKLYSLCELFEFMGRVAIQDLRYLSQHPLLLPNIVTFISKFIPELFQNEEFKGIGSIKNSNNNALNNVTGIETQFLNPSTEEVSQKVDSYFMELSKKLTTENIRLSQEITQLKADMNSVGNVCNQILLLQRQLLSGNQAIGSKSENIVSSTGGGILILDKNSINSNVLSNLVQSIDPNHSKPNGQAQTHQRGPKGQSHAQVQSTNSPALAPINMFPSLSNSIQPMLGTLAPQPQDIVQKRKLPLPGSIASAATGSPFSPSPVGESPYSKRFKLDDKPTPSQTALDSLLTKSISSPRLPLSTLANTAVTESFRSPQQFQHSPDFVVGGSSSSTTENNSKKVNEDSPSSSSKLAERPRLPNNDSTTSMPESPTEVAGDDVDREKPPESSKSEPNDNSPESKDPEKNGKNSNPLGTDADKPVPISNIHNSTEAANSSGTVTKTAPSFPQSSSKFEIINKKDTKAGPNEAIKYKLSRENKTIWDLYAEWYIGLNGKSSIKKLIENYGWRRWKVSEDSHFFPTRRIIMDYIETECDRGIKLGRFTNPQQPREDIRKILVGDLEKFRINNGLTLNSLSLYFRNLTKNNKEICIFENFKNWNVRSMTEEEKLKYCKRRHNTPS
Experimental: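 Universal 'all 10-mer' protein binding microarrays (Agilent AMADID 015681) probed with GST-tagged S. cerevisiae TFs (full-length or DBD) made by in vitro transcription/translation (PURExpress), about 100-200 nM. Bound TF was detected with fluorescent anti-GST. Each ungapped 8-mer (which stands for itself and its reverse complement) is scored by the PBM enrichment score (E-score), a modified Wilcoxon-Mann-Whitney statistic from -0.5 to +0.5, computed with the Universal PBM Analysis Suite. Scale: above 0.35 generally sequence-specific binding.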

Row | Sequence | PBM E-score
1 | ACTGTACT | -0.212
2 | AAGGTCAG | -0.202
3 | AGTCCGCG | -0.142
4 | GAGTGAGC | -0.176
5 | CGAGGGAA | -0.106
6 | CTATTGGC | 0.0102
7 | GGGAACAA | 0.0985
8 | CCAACTCC | 0.121
9 | AATTGAGC | 0.0687
10 | CGGGTTAG | -0.0116
11 | CCCACGAC | -0.112
12 | TCGGGGAA | 0.0604
13 | ACGAAGAT | 0.00119
14 | ACACTGTC | -0.139
15 | CGCATAGC | -0.245
16 | ACATCTTA | 0.0989
17 | AATTTCAC | 0.123
18 | ACTCGTCT | 0.126
19 | AAGCACTC | 0.0181
20 | GCGGAGCA | -0.203
21 | GGACATCC | 0.153
22 | CCAAAGGG | 0.00225
23 | ACAGCAGA | -0.0557
24 | CCTTGCGC | -0.243
25 | CCTACACG | -0.0394

Row | Sequence | PBM E-score
26 | CAGGGGGA | -0.17
27 | GAGTCTAC | 0.0134
28 | ATGTTGAC | 0.0197
29 | AAAGCTTC | 0.109
30 | ATATCGAT | -0.0374
31 | CTATGCTA | -0.075
32 | TTAATGAA | 0.101
33 | CTATCAAC | 0.128
34 | GCTTCCCA | 0.386
35 | ACCAGTCA | 0.0136
36 | ATAAATTA | 0.165
37 | CACCATAC | 0.0726
38 | GTTGACGA | -0.0625
39 | GTTTACTA | -0.0663
40 | GGCGTTTA | 0.0877
41 | TACACCCA | -0.0699
42 | CAAATTTG | 0.144
43 | GTTTCTAA | 0.222
44 | CAGTGCAA | -0.127
45 | AAGTTAAC | -0.0179
46 | ACTATCTC | 0.00812
47 | CGTATGTC | -0.0106
48 | CAACTCTC | -0.063
49 | CCAATCCC | 0.0645
50 | GAAGTGCC | -0.0199

Row | Sequence | PBM E-score
51 | AAGGAACA | 0.105
52 | AATGGCCG | -0.111
53 | ATATCGTG | -0.0226
54 | CTCTCGTC | -0.223
55 | CGCACATC | -0.114
56 | ACTTTCCA | 0.194
57 | CATTTAGA | 0.00276
58 | CTCAGAGA | 0.113
59 | TGGTTAAA | 0.0695
60 | TATGCATA | -0.268
61 | ATTCGGCC | -0.123
62 | GTCATCCA | -0.0788
63 | GGGATTAC | -0.0964
64 | ATAAATGC | -0.0522
65 | CTTGTGCC | -0.101
66 | ACCTTTCT | 0.0734
67 | CCTCTACC | 0.0885
68 | ATAATTAT | 0.297
69 | AGGACCCT | -0.0554
70 | AGACACAA | -0.0361
71 | CGTAAAAA | 0.0304
72 | ATGCTTTG | -0.0656
73 | GTGAATAA | 0.15
74 | ACACTGCC | -0.14
75 | ATTGGGAC | 0.102

Row | Sequence | PBM E-score
76 | CTCACGGA | -0.172
77 | ATCAACCG | -0.0815
78 | CCCCAGGC | -0.0575
79 | ATTGTATC | -0.00275
80 | ACAGAGGG | -0.00914
81 | TGTCTGAA | 0.00309
82 | ACGAGCTC | -0.222
83 | GATACCAC | 0.329
84 | AGATATAG | 0.12
85 | AGGTCTAG | -0.0363
86 | CATAGCAG | -0.167
87 | GGTCGACA | -0.239
88 | ACGCGAGT | -0.0728
89 | AAGCTTCT | 0.184
90 | AGTTTTCA | -0.098
91 | AGGATGGG | -0.0941
92 | AAGCAAAC | 0.0745
93 | CACAAGAA | 0.275
94 | GGGATACC | 0.227
95 | ATAGTGTA | -0.0657
96 | CAATGAAA | 0.156
97 | AACTCAGC | -0.091
98 | CGTAGGGA | -0.0104
99 | AACATTGC | 0.00632
100 | CCTCCCCA | 0.149

Row | Sequence | PBM E-score
101 | AGTAACCG | 0.184
102 | CGTTGGAA | 0.0447
103 | AACGTACC | 0.0266
104 | AAAGAACG | -0.125
105 | CTTTGTAA | -0.091
106 | GAGCCGGA | 0.19
107 | AGCAAGGG | -0.0882
108 | ACGGACAG | -0.142
109 | ACCATTCC | -0.0317
110 | GGGGCGAA | -0.05
111 | TACGTATA | 0.169
112 | AAGGGACA | -0.23
113 | GGCTTACA | -0.00306
114 | GGATGGCA | -0.167
115 | AGAGTATC | -0.144
116 | TGTCCTAA | 0.0459
117 | GAAGCTAC | 0.323
118 | AAATACCA | 0.0248
119 | AAAGCAAT | -0.0683
120 | AACACAAC | 0.0425
121 | ACAACTCT | 0.174
122 | ACAACTGA | 0.0452
123 | GCCCTCCA | -0.163
124 | ATCTACCC | 0.024
125 | CCATTACG | 0.00447

Row | Sequence | PBM E-score
126 | CACCCCCG | -0.0584
127 | CCCACACG | 0.155
128 | AGGTTTTG | -0.257
129 | ACCGGTGA | -0.0706
130 | ATTGTGTG | -0.126
131 | ACCTCCGA | -0.214
132 | ACTGTGCG | -0.119
133 | GCCGAGTA | 0.115
134 | CCTGTATC | 0.324
135 | ATCCAACA | 0.119
136 | ATCTAAGC | -0.141
137 | AGATCAAC | -0.00727
138 | AGGTACCA | 0.0906
139 | ATGTTGCG | -0.00581
140 | CATACTAG | 0.0727
141 | GCTTTCAC | -0.0543
142 | ACTTCCAC | 0.261
143 | ATGGTGTG | -0.112
144 | AACGGGGG | -0.182
145 | ACGAGGCC | -0.24
146 | CCGAAGCG | 0.02
147 | AAGGGAAA | 0.0151
148 | ACCAGACG | 0.0328
149 | ATACCAGA | 0.0953
150 | GGTGCAAA | 0.105

Row | Sequence | PBM E-score
151 | GGGCCGGA | 0.0959
152 | AGTATGGA | -0.0287
153 | CACGATGA | -0.0325
154 | AGCCCGTG | -0.0206
155 | ATGGCGAG | -0.255
156 | CAGCCGTA | -0.217
157 | ACGTACGA | -0.188
158 | CAGTAGCA | 0.0517
159 | GATTGAGC | 0.122
160 | ACCCTCCT | -0.0533
161 | AATCAGGC | 0.125
162 | GTTAAAGA | -0.0184
163 | AGTAAGAA | 0.0422
164 | AAGAGAAA | 0.00997
165 | GAAATTGA | 0.0998
166 | GCTCAACC | 0.104
167 | AGTTATCC | 0.0939
168 | TGCGGGAA | 0.132
169 | CTAGCTGA | -0.105
170 | ACGTGTCC | -0.0547
171 | AACCGCTG | -0.178
172 | AATACCAG | 0.051
